About 50,000 (12%) of roughly 420,000 compounds were called active. Inconclusive results, whose numbers are uncertain, are shown with a selection of clear calls. The call rests on the fitted dose curve; in most records, active means well fitted inhibition curve with a large enough effect; inconclusive means small, poorly fitted or top-dose-only effect; inactive means flat fitted curve, though single readings scatter. No potency is given beside an inconclusive call; the fits are too rough.
assay: qHTS for Inhibitors of human tyrosyl-DNA phosphodiesterase 1 (TDP1): qHTS in cells in presence of CPT; details: chicken DT40 Tdp1-/-;hTDP1 cells + 20 nM CPT, ATP luminescence, 48 h; activity change, negative = growth inhibition: at 46.2 µM (top of the series) unless noted; further: nearly all actives have a fitted effect of over 55% in size
Outline: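 Chicken DT40 Tdp1-/- cells stably complemented with human TDP1 were seeded at 400 cells/well in medium containing 20 nM camptothecin, exposed to pin-transferred compounds, and grown at 37 °C for at least 48 hr. Viability was read as ATP luminescence.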
On the % scale 0 is the no-effect control and ±100 the full control effect; potency means the concentration at half of the fitted maximal effect; tags describe the fitted curve by direction and shape.

Compound	Potency	activity change, negative = growth inhibition
COc1ccc(-n2nc(C(=O)NCC(=O)Nc3cc(OC)c(OC)c(OC)c3)c3ccccc3c2=O)cc1Cl	inconclusive [inhibitor, partial curve]	–
O=C(CSc1nc2c(c(C(F)(F)F)n1)CCc1ccccc1-2)NCc1ccco1	active: 16.4 µM	–
CCOc1ccccc1NC(=O)/C(C#N)=C/c1cccnc1	–	inactive: -15.6%
CC(=O)N1c2ccc(S(=O)(=O)N3CCCC3C(=O)Nc3cccc(F)c3)cc2CC1C (stereo not drawn)	active: 16.4 µM	–
CCCCc1nc2n[nH]c(N)c2c2c1CCC2	–	inactive: -12.7%
O=C(NCc1cccs1)C1CC(c2ccccc2O)=NO1 (stereo not drawn)	active: 20.6 µM	–
Cc1cccc(COc2ccc(-c3cc(C(F)(F)F)n4nc(C)cc4n3)cc2)c1	inconclusive [inhibitor, single point]	–
C=CCOc1ccc(/C=C2\SC(=S)N(CCC(=O)O)C2=O)cc1	inconclusive [inhibitor, single point]	–
CCC(=O)c1ccc(OCC(O)CN(CCc2ccccc2)Cc2ccccc2)cc1 (stereo not drawn)	inconclusive [inhibitor, single point]	–
Cc1ccc(C(C)C)c(OCC(=O)NNC2=CC(=O)CC(C)(C)C2)c1	inconclusive [inhibitor, single point]	–
COc1cccc(OC)c1C(=O)Nc1c(C(=O)N2CCN(c3ccccn3)CC2)oc2ccccc12	inconclusive [inhibitor, single point]	–
N#Cc1cccnc1N1CCN(C(=O)c2cccc3c2C(=O)c2ccc(Cl)cc2S3(=O)=O)CC1	inconclusive [inhibitor, single point]	–
CCN(CC(=O)Nc1ccc(OC)cc1)C(=O)c1cc([N+](=O)[O-])ccc1N1CCOCC1	–	inconclusive: -35.2% [inhibitor]
c1ccc(-c2cc3ncccc3cn2)cc1	inconclusive [inhibitor, single point]	–
NC(=O)c1ccccc1NC(=O)CCc1ccccc1	–	inconclusive: -35.8% [inhibitor]
COc1ccccc1CNC(=O)CSc1ncc(C(=O)Nc2ccccc2)c(=O)n1C	active: 16.4 µM	–
COc1cc(C(=O)Nc2nc3ccc(S(=O)(=O)N4CCOCC4)cc3s2)cc(OC)c1OC	inconclusive [inhibitor, partial curve]	–
COC(=O)[C@]12CCCCC=C1N(Cc1ccc3c(c1)OCO3)C(=O)[C@H](CC(=O)NCc1ccccc1)C2	inconclusive [inhibitor, single point]	–
O=C(Nc1cccc(F)c1)[C@@H]1CCCN1	–	inactive: 2.38%
Cc1cccc(C)c1NC(=O)CN(C)CC(=O)Nc1ccccc1Oc1ccccc1	–	inactive: -4.36%
Cc1ccc(S(=O)(=O)N2CCC(=O)N(CCOCc3cccc(Cl)c3)CC2)cc1	inconclusive [inhibitor, single point]	–
CCS(=O)(=O)c1ccc(-c2cccc(NC(=O)c3ccco3)c2)nn1	–	inactive: -0.994%

Compound	Potency	activity change, negative = growth inhibition
COc1ccc(C(CNC(=O)c2ccc3c(c2)C(=O)N(CCC(C)C)C3=O)N2CCOCC2)cc1 (stereo not drawn)	–	inconclusive: -30% [inhibitor]
O=C(/C=C/c1ccccc1[N+](=O)[O-])Nc1ccc(S(=O)(=O)Nc2ncccn2)cc1	–	inactive: -6.64%
O=C(NCCCN1CCOCC1)c1ccc(S(=O)(=O)Nc2ccccc2F)cc1	–	inconclusive: -55.8% [inhibitor]
CC1(C)Cc2ccccc2C(C(Cc2ccccc2)C(N)=O)=N1 (stereo not drawn)	–	inactive: -1.07%
CN(CC(=O)Nc1ccc(Cl)c(C(F)(F)F)c1)C(=O)/C=C/c1cccs1	inconclusive [inhibitor, single point]	–
COc1ccccc1N(CC(=O)NCCSc1ccccc1)S(=O)(=O)c1ccc(C)cc1	inconclusive [inhibitor, single point]	–
O=C(CCn1ccnc1)Nc1ccc2ccccc2c1	inconclusive [inhibitor, full curve, poor fit]	–
COc1cccc(CCNC(=O)c2cnc3sc(N4CCCC4)nn3c2=O)c1	active: 14.6 µM	–
CN(Cc1cccs1)c1ncnc2sccc12	inconclusive [inhibitor, single point]	–
CC(C)c1ccc(-c2nc(N3CCCC3)nc3n[nH]c(N)c23)cc1	inconclusive [inhibitor, single point]	–
COc1ccc(-n2c(=O)c3c(c4cc(OC)ccc4n3C)n(Cc3c(F)cccc3Cl)c2=O)cc1	–	inactive: -3.05%
CSc1ncc2c(n1)-c1ccccc1N(Cc1ccccc1C)S2(=O)=O	inconclusive [inhibitor, single point]	–
CCCOc1ccc(C(=O)NCCCn2ccnc2)cc1	–	inactive: 4.08%
CO[C@H]1C=CO[C@@]2(C)Oc3c(C)c(O)c4c(O)c(c5c(c4c3C2=O)=NC2(CCN(CC(C)C)CC2)N=5)NC(=O)/C(C)=C\C=C/[C@H](C)[C@H](O)[C@@H](C)[C@@H](O)[C@@H](C)[C@H](OC(C)=O)[C@@H]1C	inconclusive [inhibitor, single point]	–
O=C(CC12CC3CC(CC(C3)C1)C2)N/N=C/c1ccncc1	inconclusive [inhibitor, partial curve]	–
COc1ccc(-c2csc(=NCCO)n2-c2ccccc2)cc1	inconclusive [inhibitor, partial curve, poor fit]	–
COC(=O)C1=CN(c2ccc(OC)cc2)C=C(C(=O)OC)C1c1ccc(C)c([N+](=O)[O-])c1	inconclusive [inhibitor, single point]	–
Clc1ccc2c(NCc3ccccc3)ccnc2c1	inconclusive [inhibitor, single point]	–
COC1(C(F)(F)F)NC(=O)N(c2ccc(F)cc2)C1=O (stereo not drawn)	–	inactive: 13.8%
CN(CC(=O)Nc1cccc(F)c1)C(=O)CN1C(=O)NC2(CCCC2)C1=O	inconclusive [inhibitor, single point]	–
Cc1cc2cc(C=O)c(Cl)nc2cc1C	inconclusive [inhibitor, single point]	–

Source: PubChem BioAssay AID686979 (National Center for Advancing Translational Sciences (NCATS), 2013)
